Test results: PubChem BioAssay AID686979 (National Center for Advancing Translational Sciences (NCATS), 2013)
In all, about 420,000 compounds went through this assay and about 50,000 (12%) were called active. This list was built around the results that the source calls inconclusive (neither active nor inactive); the mix of calls is not that of the screen. Calls follow the shape of the dose curve; as a rule, active = well fitted inhibition curve with a large enough effect; inconclusive = small, poorly fitted or top-dose-only effect; inactive = flat fitted curve, though single readings scatter. No potency is given beside an inconclusive call; the fits are too rough.

Experiment: qHTS for Inhibitors of human tyrosyl-DNA phosphodiesterase 1 (TDP1): qHTS in cells in presence of CPT; also: nearly all actives have a fitted effect of over 55% in size
Settings: chicken DT40 Tdp1-/-;hTDP1 cells + 20 nM CPT, ATP luminescence, 48 h; activity change, negative = growth inhibition: at 46.2 µM (top of the series)
How it was run: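 Chicken DT40 Tdp1-/- cells stably complemented with human TDP1 were seeded at 400 cells/well in medium containing 20 nM camptothecin, exposed to pin-transferred compounds, and grown at 37 °C for at least 48 hr. Viability was read as ATP luminescence.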
% is scaled to controls: 0 for no effect and ±100 for the full control effect; potency is read from the fitted curve at half-maximal effect; tags tell the direction and shape of the fitted curve.

Compound | activity change, negative = growth inhibition | Potency
COc1ccccc1CC(=O)NCCN1CCCCC1 | inactive: 11.9% | 
Cc1ccc(NC(=O)CN(C)Cc2ccc(Cl)cc2)cc1 |  | inconclusive [inhibitor, single point]
O=C(Nc1ccncc1)Nc1ccc(F)cc1 |  | inconclusive [inhibitor, single point]
CCCn1c(N)c(C(=O)CN(C)CC(=O)Nc2ccccc2CC)c(=O)[nH]c1=O |  | inconclusive [inhibitor, single point]
CCOc1ccc(C(=O)Nc2ccccc2N2CCOCC2)cc1 | inactive: -27% | 
COc1ccc(N2CCN(C(=O)c3cc(C4CC4)nn3-c3ccccc3)CC2)cc1 |  | inconclusive [inhibitor, partial curve]
Nc1c(C(=O)Nc2ccccc2)c2nc3ccccc3nc2n1CCCN1CCOCC1 |  | inconclusive [inhibitor, single point]
CC(C)CNC(=O)c1cc2nc(C3CC3)cc(C(F)(F)F)n2n1 | inactive: -1.04% | 
Cc1[nH]c2ccccc2c1[C@H]1[C@@H](CC#N)C1(C)C |  | inconclusive [inhibitor, partial curve]
COC(=O)C1=C(C)NC2=C(C(=O)CC(C)(C)C2)C1c1cn(Cc2ccc(Br)cc2)nc1-c1ccccc1 (configuration not stated) |  | inconclusive [inhibitor, single point]
CCCCNC(=O)N1c2ccccc2CC1C (configuration not stated) | inactive: -21.2% | 
CCc1ccc(NC(=O)CSc2nnc(-c3ccccc3)n2CC)cc1 | inactive: -25.3% | 
CC(Sc1nnc(C2CC2)n1-c1ccccc1)C(=O)N1CCNC1=O (configuration not stated) | inactive: 8.34% | 
CO/N=C/c1ccc(N2CCN(C(=O)c3ccc(Cl)cc3Cl)CC2)c([N+](=O)[O-])c1 |  | active: 10.3 µM
Cc1cccc(C)c1OCc1nnc(NC(=O)CSc2ccc(Cl)cc2)s1 |  | inconclusive [inhibitor, partial curve, poor fit]
O=C(Nc1nc2ccccc2s1)C1=NN(c2ccccc2)C(=O)CC1 |  | inconclusive [inhibitor, single point]
C=CCOC(=O)c1cn(CC)c2nc(C)ccc2c1=O | inactive: 8.26% | 
CN(C(=O)CN1C(=O)CCSc2ccc(S(=O)(=O)N3CCCC3)cc21)c1ccccc1 |  | inconclusive [inhibitor, single point]
COc1ccc(OCc2cc(C(=O)NCCCc3ccccc3)no2)c(Cl)c1 |  | inconclusive [inhibitor, single point]
CCCCNC(=O)C1(C)CCCCN1C(=O)c1cncc(Br)c1 (configuration not stated) | inactive: -21.4% | 
Cc1nn(-c2ccccc2)c2sc(C(=O)n3cccn3)cc12 | inactive: -0.609% | 
CCC(C)Sc1ccc([C@@H]2[C@H]3C(=O)N(C)C(=O)[C@H]3[C@]3(C(=O)OC)CCCN23)cc1 (some centres not stated) |  | inconclusive [inhibitor, single point]
O=c1c2ccccc2[nH]c(=S)n1CCN1CCCC1 | inactive: 23.6% | 
O=c1[nH]c2ccc(Br)cc2c(-c2ccccc2)c1CN1CCOCC1 |  | inconclusive [inhibitor, single point]

Compound | activity change, negative = growth inhibition | Potency
COc1ccc(S(=O)(=O)N(CC(=O)NCc2ccccc2)c2ccc(C)cc2)cc1OC |  | inconclusive [inhibitor, single point]
Cc1ccc(C2(C)NC(=O)N(CC(=O)N3CC(=O)Nc4ccccc43)C2=O)cc1 (configuration not stated) | inactive: -18.6% | 
Cc1ccc(NC(=O)c2cccc(S(=O)(=O)N3CCCc4ccccc43)c2)nc1 |  | inconclusive [inhibitor, partial curve]
Cc1ccc(NC(=O)CSC(C)c2nc3ccccc3c(=O)[nH]2)cc1 (configuration not stated) | inactive: -14.5% | 
Cc1ccc2nc(Nc3ccc(Cl)cc3)c3nncn3c2c1 |  | inconclusive [inhibitor, single point]
Cc1nn(-c2ncccn2)c2c1C(=O)CC(C)(C)C2Br (configuration not stated) |  | active: 20.6 µM
Cc1cccc(C)c1Nc1nc2ccccc2nc1NS(=O)(=O)c1ccccc1 | inconclusive: -31.5% [inhibitor] | 
Cc1oc2cc(O)cc(C)c2c(=O)c1-c1cnn(-c2ccccc2)c1 |  | inconclusive [inhibitor, single point]
COCc1nnc(NC(=O)c2cc(Cl)ccc2OC)s1 | inactive: -2% | 
COc1ccc2[nH]cc(CCNC(=O)c3ccccc3Cl)c2c1 | inactive: -3.18% | 
c1ccc(COc2cccc(CNCc3cccs3)c2)cc1 |  | inconclusive [inhibitor, single point]
Cc1ccc2nc(SCC(=O)N(CC(C)C)c3c(N)n(Cc4ccccc4)c(=O)[nH]c3=O)[nH]c2c1 |  | inconclusive [inhibitor, single point]
COCCCn1c(SCC(=O)Nc2oc(C)c3c(C)n[nH]c(=O)c23)nc2ccccc2c1=O |  | inconclusive [inhibitor, single point]
COC(=O)CCC(=O)OC1(C)C(=O)C=C2C=C(C3CC3)N(Cc3ccc(OC)cc3)C=C2C1=O (configuration not stated) |  | inconclusive [inhibitor, partial curve, poor fit]
Cc1nn(-c2ccccc2)c(C)c1CC(=O)NCC1Cc2cc(-c3cncnc3)ccc2O1 (configuration not stated) | inactive: 7.12% [at 9.04 µM] | 
COc1ccc(/C=N/OCC(=O)Nn2c(C)nc3ccccc3c2=O)cc1 |  | inconclusive [inhibitor, single point]
CCOC(=O)N1CCN(C(=O)CSC2=NS(=O)(=O)c3cc(F)ccc3N2)CC1 | inactive: 14.2% | 
CCOC(=O)c1ccc(Nc2nc(-c3cccnc3)nc3ccccc23)cc1 |  | active: 16.4 µM
Cc1ccc(/C=N/NC(=O)c2cc3c(ccc4ccccc43)o2)o1 |  | inconclusive [inhibitor, single point]
O=C(CCSc1ccc(Cl)cc1)N1CCN(S(=O)(=O)c2ccccc2)CC1 |  | active: 20.6 µM
CCOC(=O)CN1C(=O)S/C(=C/c2cc(C)n(-c3ccccn3)c2C)C1=O |  | inconclusive [inhibitor, single point]
CCOc1ccc(N(C)C(=O)CCc2nnc3ccc(N4CCOCC4)nn23)cc1 | inactive: -8.62% | 
NNC(=O)CN1C(c2ccccc2Br)=Nc2ccc(Br)cc2C1c1ccccc1 (configuration not stated) |  | inconclusive [inhibitor, single point]
S=c1[nH]nc(-c2cc(-c3ccccc3)n[nH]2)n1/N=C/C=C/c1ccco1 | inactive: -0.642% | 

Compound | activity change, negative = growth inhibition | Potency
COc1ccc(S(=O)(=O)N2CCOCC2)cc1C(=O)Nc1cc(C)on1 | inactive: 3.56% | 
Nc1c(C(=O)Nc2ccccc2F)sc2nc(-c3ccco3)ccc12 |  | inconclusive [inhibitor, partial curve, poor fit]
O=C1CN2NC(=S)N(c3ccccc3)C2=CN1c1ccc(Cl)cc1 | inactive: -7.61% | 
CC(C(=O)Nc1ccccc1-c1ccccc1)N1CCN(C(=O)c2ccccc2)CC1 (configuration not stated) |  | inconclusive [inhibitor, partial curve]
Oc1ccc(C23CC4CC(CC(C4)C2)C3)cc1O |  | inconclusive [inhibitor, single point]
COc1ccc(-n2ncc3c2CC(C)(C)CC3NC(=O)c2ccoc2C)cc1 (configuration not stated) |  | inconclusive [inhibitor, single point]
O=C(CN(CCc1c[nH]c2ccccc12)S(=O)(=O)c1ccccc1)N1CCCCCC1 |  | inconclusive [inhibitor, single point]
CC1=C(C(=O)N2CCN(c3cccc(C)c3C)CC2)C2(CCCCC2)OC1=O |  | active: 20.6 µM
Cc1c(/C=N/NC(=O)c2cc(Br)ccc2O)c(=O)n(C)c(=O)n1C | inactive: -17.2% | 
COc1ccc(-c2noc(CN(C(C)C)S(=O)(=O)c3ccc(Br)cc3)n2)cc1 |  | inconclusive [inhibitor, single point]
CCC(=O)Nc1ccc(NC(=S)NC(=O)/C=C/c2ccccc2)cc1 |  | inconclusive [inhibitor, single point]
COC(=O)CCNC(=O)CCc1ccc(S(=O)(=O)N2CCCCCC2)cc1 | inactive: -17.7% | 
COCCN(C(=O)CCc1ccc(OC)cc1)c1nnc(-c2ccncc2)s1 |  | inconclusive [inhibitor, single point]
Cc1ccsc1C1Nc2ccccc2C(=O)N1O (configuration not stated) |  | inconclusive [inhibitor, single point]
COc1ccc(CN2CCC(C)(Oc3cccc(F)c3)C2)c2ccccc12 (configuration not stated) |  | active: 23.1 µM
COC(=O)Cn1c(=NC(=O)c2nc3ccccc3s2)sc2cc(S(N)(=O)=O)ccc21 |  | inconclusive [inhibitor, single point]
CCN(CC)CCOC(=O)CCc1cccc2ccccc12 | inactive: -0.081% | 
CCCNC(=O)c1ccccc1NC(=O)c1ccccc1N(C)S(=O)(=O)c1ccc(C)cc1 |  | inconclusive [inhibitor, single point]
O=C(COC(=O)c1n[nH]c2ccccc12)NC(=O)NC1CCCC1 |  | inconclusive [inhibitor, single point]
CCSc1nnc(-c2cnn(-c3ccccc3)c2-n2cccc2)n1C |  | inconclusive [inhibitor, partial curve]
O=C(Nc1ccccc1)N(Cc1ccc(F)cc1)c1ccccn1 |  | inconclusive [inhibitor, single point]
CCOC(=O)C1=CCN(S(=O)(=O)c2ccc(C)cc2)C1c1ccc(Cl)c(Cl)c1 (configuration not stated) |  | inconclusive [inhibitor, single point]
COc1ccc(Cn2cccc(NC(=O)Nc3cccc(OC)c3)c2=O)cc1 | inconclusive: -32.3% [inhibitor] | 
Cc1cc(OCC(=O)NCCCN2CCOCC2)c2c(C)cc(=O)oc2c1 | inactive: 10.7% | 
